# Experimental data from publication PMC8402715 (Viruses, 2021).
# Columns and labels:
# mock-infected RPE cells = assay: Metabolomics of polar metabolites in media of mock-infected RPE cells; conditions: non-infected RPE cells, 10 μM, 24 h
# FLUAV-infected RPE cells = assay: Metabolomics of polar metabolites in media of FLUAV-infected RPE cells; conditions: FLUAV-infected RPE cells (moi 1), 10 μM, 24 h
smiles,measurement,setting,value
"C#C[C@]1(O)CC[C@H]2[C@@H]3CCC4=CC(=O)CC[C@@H]4[C@H]3CC[C@@]21CC [levonorgestrel, Levonorgestrel]","levels of trimethylamine-N-oxide, phosphoethanolamine and hippuric acid",mock-infected RPE cells,substantially lowered
"CCOC(=O)C1=C(COCCN)NC(C)=C(C(=O)OC)C1c1ccccc1Cl (centres unmarked) [amlodipine, Amlodipine]",levels of inosine and D-ribose 5-phosphate in the media,FLUAV-infected RPE cells,substantially elevated
